From PubChem BioAssay AID2675 (National Center for Advancing Translational Sciences (NCATS), 2010)
About 100 (0.036%) of roughly 280,000 compounds were called active. The inconclusive results got no clear call from the source; some entries with a clear call stand among them for comparison. The call rests on the fitted dose curve; in most records, active means well fitted inhibition curve with a large enough effect in the signal ratio, with a control signal flat (not every such curve was filed as active); inconclusive means small, poorly fitted or top-dose-only effect, or effect the other way, or a change in a side signal; inactive means no such curve, though single readings can be large or run the other way; the % refers to the signal ratio. Potencies beside an inconclusive call are fits to weak or partial responses and may not hold up. “Side channel” marks fits to a control or component signal instead of the main read-out.

Target: Muscleblind-like protein 1 (Homo sapiens) (UniProt Q9NR56)
UniProt Q9NR56, sequence (Q9NR56 whole entry, looked up): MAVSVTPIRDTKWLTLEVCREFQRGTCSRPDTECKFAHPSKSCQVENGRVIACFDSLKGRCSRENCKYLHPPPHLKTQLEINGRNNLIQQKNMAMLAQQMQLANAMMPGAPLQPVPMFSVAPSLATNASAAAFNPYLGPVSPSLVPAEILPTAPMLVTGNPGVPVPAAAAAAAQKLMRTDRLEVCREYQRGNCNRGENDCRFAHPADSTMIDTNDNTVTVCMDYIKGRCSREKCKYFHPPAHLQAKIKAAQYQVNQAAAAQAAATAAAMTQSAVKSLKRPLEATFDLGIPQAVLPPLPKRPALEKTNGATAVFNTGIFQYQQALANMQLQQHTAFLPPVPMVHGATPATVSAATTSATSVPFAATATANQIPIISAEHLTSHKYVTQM
Assay: qHTS Assay for Inhibitors of MBNL1-poly(CUG) RNA binding
Details: TR-FRET MBNL1-His/biotin-(CUG)12 binding, 665/545 ratio; activity change, negative = inhibition: at 57.5 µM (top of the series)
How it was run: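 TR-FRET readout: Ex 340 nm, 665/545 nm emission ratio, normalized to buffer-only (basal) and MBNL1-(CUG)12 controls. Complex of MBNL1-His with Biotin-(CUG)12, compounds 92 nM–58 uM, incubated 60 min at room temperature.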
On the % scale 0 is the no-effect control and ±100 the full control effect; potency means the concentration at half of the fitted maximal effect; tags describe the fitted curve by direction and shape or compound fluorescence and quenching.

| SMILES | Potency | activity change, negative = inhibition |
| --- | --- | --- |
| O=C(O)c1ccc(Nc2nc(-c3cccnc3)cs2)cc1O | inconclusive: 25.1 µM [quencher, side channel, partial curve] | – |
| CCOc1ccc(CC(=O)Nc2ccc(-c3ccc4nnc(C)n4n3)cc2)cc1 | inconclusive: 14.1 µM [quencher, partial curve] | – |
| N#C/C(=C/c1ccc(N2CCCCC2)o1)C(=O)NCCc1c[nH]c2ccccc12 | – | inconclusive: 23.4% [phenotype inactive] |
| CCS(=O)(=O)N1Cc2ccccc2CC1C(=O)Nc1nnc(SCc2ccc(C#N)cc2)s1 (stereo unspecified) | inactive | – |
| CCOc1ccc(C(=O)N/N=C/c2ccccc2[N+](=O)[O-])cc1 | inconclusive: 3.55 µM [quencher, side channel, partial curve] | – |
| CCCN1CCN(C(=O)C2CCN(c3ncnc4c3nc3n4CCCCC3)CC2)CC1 | inactive | – |
| C=CCSc1nnc(CCCCCN2C(=O)c3cccc4cccc(c34)C2=O)o1 | inconclusive: 22.4 µM [quencher, side channel, partial curve] | – |
| CC1(C)Cc2c(C#N)c(N)sc(=S)c2CO1 | inconclusive: 25.1 µM [quencher, side channel, single point] | – |
| CCC(C)NC(=O)c1ccccc1NC(=O)c1ccc(CSc2ccc(C)cc2)cc1 (stereo unspecified) | inconclusive: 0.631 µM [quencher, side channel, single point] | – |
| COCCCn1c(SCC(=O)Nc2sc3c(c2C#N)CCCC3)nnc1-c1ccncc1 | inactive | – |
| Cc1ccc(NS(=O)(=O)c2ccc(-c3ccc(=O)[nH]n3)o2)cc1 | inconclusive: 12.6 µM [quencher, side channel, partial curve] | – |
| COC(=O)c1[nH]c2c(c1C(=O)OC)CCc1ccccc1-2 | inconclusive: 28.2 µM [quencher, side channel, single point] | – |
| CCOc1ccc(/C=N/NC(=O)CN2CCCCC2)cc1OCC | inconclusive: 35.5 µM [quencher, side channel, single point] | – |
| CCNC(=O)COC(=O)/C=C/c1ccccc1[N+](=O)[O-] | inconclusive: 14.1 µM [quencher, side channel, partial curve] | – |
| NC(=O)C1CCN(C(=S)c2ccc(-c3ccc(Br)cc3)o2)CC1 | inactive | – |
| CCC(=O)c1ccc(OCC(O)CN2CCN(c3ccccn3)CC2)cc1 (stereo unspecified) | inactive | – |
| O=C(CCCN1C(=O)/C(=C\c2cccs2)SC1=S)Nc1ccc(C(=O)O)cc1 | inconclusive: 6.31 µM [quencher, side channel, partial curve] | – |
| Nc1c(C(=O)Nn2cnnc2)cc([N+](=O)[O-])cc1[N+](=O)[O-] | inconclusive: 8.91 µM [quencher, side channel, partial curve] | – |
| CC(=O)N1CCN=C1SCc1ccc(C)cc1 | inconclusive: 39.8 µM [quencher, side channel, single point] | – |
| CCCCOC(=O)Nc1ccc(S(=O)(=O)Nc2nc(C)cc(C)n2)cc1 | inactive | – |
| COc1ccc(C2=NOC(C(=O)Nc3cc(C)on3)C2)cc1OC (stereo unspecified) | inactive | – |

| SMILES | Potency | activity change, negative = inhibition |
| --- | --- | --- |
| C=CCc1cccc(/C=N/NC(=O)CCC(=O)Nc2ccc(C)cc2)c1O | inactive | – |
| CC(C)OC(=O)c1cc(-c2ccc(C=O)o2)ccc1Cl | inconclusive: 35.5 µM [quencher, side channel, single point] | – |
| N#Cc1ccc(C(=O)Nc2nc(SCc3ccc(Cl)cc3)n[nH]2)cc1 | inactive | – |
| Cc1nn(C)c(C)c1S(=O)(=O)N1CCCC(C(=O)NCCc2ccc(Cl)cc2)C1 (stereo unspecified) | inconclusive: 0.891 µM [quencher, side channel, single point] | – |
| CN(C(=O)c1ccc([N+](=O)[O-])cc1)c1ccccc1C(=O)NCc1ccccc1 | inconclusive: 25.1 µM [quencher, side channel, partial curve] | – |
| C/C(=N\Nc1nnc2c3ccccc3n(C)c2n1)c1ccc(C)o1 | inconclusive: 22.4 µM [quencher, side channel, partial curve, poor fit] | – |
| COc1cccc(/C=C2\SC(=S)N(CC(=O)N(C)C3CCS(=O)(=O)C3)C2=O)c1 (stereo unspecified) | inconclusive: 3.55 µM [quencher, full curve] | – |
| O=C(/C=C/c1cccs1)NCc1cccnc1 | inconclusive: 4.47 µM [quencher, side channel, single point] | – |
| Cc1[nH]n(-c2ccccc2)c(=O)c1C(C[N+](=O)[O-])c1ccc(F)cc1 (stereo unspecified) | – | inactive: 7.35% [at 11.5 µM] |
| CCCCOCCCn1c(-c2ccco2)nc2nc3ccccc3nc21 | inconclusive: 14.1 µM [quencher, side channel, partial curve] | – |
| COC(=O)C1=C(C)NC(=O)NC1c1ccc([N+](=O)[O-])o1 (stereo unspecified) | inconclusive: 14.1 µM [quencher, side channel, partial curve] | – |
| CCN(CC(=O)Nc1ccccc1OC)CC(=O)Nc1ccccc1-c1ccccc1 | inconclusive: 100 µM [inhibitor, partial curve] | – |
| O=C(Nc1cccc(-c2cnc3ccccc3n2)c1)c1cccc(NC(=O)c2ccco2)c1 | inconclusive: 12.6 µM [quencher, side channel, partial curve] | – |
| O=[N+]([O-])c1ccc(-c2nc(-c3ccc(F)cc3)c(-c3ccncc3)[nH]2)cc1 | inconclusive: 17.8 µM [quencher, side channel, partial curve] | – |
| Cc1ccc(-n2c(N)c(C(=O)N3CCOCC3)sc2=S)c(C)c1 | inconclusive: 22.4 µM [quencher, side channel, single point] | – |
| COc1ccc(/C=C2\SC(=S)N(CC(=O)N(C)C3CCS(=O)(=O)C3)C2=O)cc1 (stereo unspecified) | inconclusive: 2.82 µM [quencher, side channel, full curve] | – |
| O=C(Nc1ccccc1C(=O)N1CCCCC1)c1ccccc1C(F)(F)F | inactive | – |
| N#Cc1c(SCc2ccc(Cl)cc2)sc(C(=O)c2ccccc2)c1N | inconclusive: 25.1 µM [quencher, side channel, single point] | – |
| COc1ccc(-c2nc3ccccc3nc2-c2ccc(OC)c(OC)c2)cc1OC | inconclusive: 25.1 µM [quencher, side channel, partial curve] | – |
| CC(=O)N1CCN(c2ccc(NC(=O)/C=C/c3ccccc3)cc2)CC1 | inconclusive: 8.91 µM [quencher, side channel, partial curve] | – |
| CCC1S/C(=N/C(=O)NC2CCCCC2)NC1=O (stereo unspecified) | inactive | – |

| SMILES | Potency | activity change, negative = inhibition |
| --- | --- | --- |
| CCN(CC)c1ccc2oc(=O)c(C)nc2c1 | inconclusive: 28.2 µM [quencher, side channel, partial curve] | – |
| O=C(NNC(=O)c1ccc2c(c1)OCO2)NC12CC3CC(CC(C3)C1)C2 | inconclusive: 39.8 µM [fluorescent, side channel, partial curve] | – |
| COc1c(-c2ccc([N+](=O)[O-])cc2[N+](=O)[O-])c(=O)n(C)c(=O)n1C | inconclusive: 17.8 µM [quencher, side channel, partial curve] | – |
| COc1cccc(C2CC(c3cccc(NS(C)(=O)=O)c3)=NN2C(=O)c2ccccc2)c1OC (stereo unspecified) | inactive | – |
| C=CCN1C(=O)C(C)(C)N(C(=O)c2cccc([N+](=O)[O-])c2)c2ccccc21 | inconclusive: 15.8 µM [quencher, side channel, partial curve] | – |
| Fc1cccc(NC(=S)NNc2c3ccccc3nc3ccccc23)c1 | inconclusive: 7.08 µM [quencher, side channel, partial curve] | – |
| Clc1ccccc1CONc1ncnc2nonc12 | inconclusive: 17.8 µM [quencher, side channel, single point] | – |
| O=C(O)CCc1ccc(-c2cccs2)o1 | inactive | – |
| COc1ccc(N2C(=O)C(Cl)=C(Nc3ccccc3OC)C2=O)cc1 | inconclusive: 15.8 µM [quencher, side channel, partial curve] | – |
| C/C(=N\NC(=O)CC#N)c1cc2ccc(O)cc2oc1=O | inconclusive: 28.2 µM [quencher, side channel, single point] | – |
| Cc1cccc2sc(NNC(=O)c3ccc4c(c3)OCCO4)nc12 | inconclusive: 126 µM [inhibitor, partial curve, poor fit] | – |
| N/C(=N\OC(=O)N1CCOCC1)c1ccc(Cl)cc1 | inconclusive: 3.16 µM [fluorescent, side channel, single point] | – |
| C/C(=N\NC(=O)CSCc1ccccc1Cl)c1cccc(NC(=O)c2ccccc2)c1 | inconclusive: 79.4 µM [inhibitor, partial curve] | – |
| O=C(CNC(=O)c1ccccc1)NCC(O)c1ccc([N+](=O)[O-])cc1 (stereo unspecified) | inconclusive: 31.6 µM [quencher, side channel, single point] | – |
| CCN(CC)C(=O)c1ccc2c(c1[N+](=O)[O-])C(=O)c1ccccc1C2=O | inconclusive: 1.78 µM [quencher, side channel, partial curve] | – |
| Cc1c(CC(=O)N[C@@H](C)C(=O)O)c(=O)oc2cc3occ(-c4ccccc4)c3cc12 | inactive | – |
| C=CCNC(=O)CSc1nnc(-c2ccccn2)n1Cc1ccccc1 | inconclusive: 39.8 µM [fluorescent, side channel, single point] | – |
| C/C(=C1/SC(=S)N(CCC(=O)O)C1=O)c1ccc(O)cc1 | inconclusive: 22.4 µM [quencher, side channel, partial curve] | – |
| COC(=O)c1ccc(NC(=S)NC(=O)c2c(Cl)cnn2C)cc1 | – | inconclusive: -15.3% [phenotype inactive] |
